# Data taken from PubChem BioAssay AID686971 (National Center for Advancing Translational Sciences (NCATS), 2013).
# The whole screen tested about 360,000 compounds, of which about 7,500 (2.1%) were called active. This list was built around the results that the source calls inconclusive (neither active nor inactive); the mix of calls is not that of the screen. Calls come from the whole dose curve; as a rule, active = well fitted cell-killing curve with a large enough effect; inconclusive = small, poorly fitted or top-dose-only effect, or effect the other way, or another doubt; inactive = no such curve, though single readings can be large or run the other way. No potency is given beside an inconclusive call; the fits are too rough.
# Assay: qHTS for induction of synthetic lethality in tumor cells producing 2HG: qHTS for the HT-1080-IDH1KD cell line;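 for activity, negative = toxicity: 0% = DMSO wells and -100% = cell-free medium wells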
# Conditions: HT-1080 IDH1 knockdown viability, ATP luminescence, 48 h; activity, negative = toxicity: at 46.1 µM (top of the series) unless noted
# Outline: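 Knockdown cells (IDH1KD HT-1080) received compounds 2 h after plating at 750 cells/well and were kept 48 h at 37 °C in 5% FBS RPMI. A CellTiter-Glo luminescence read gave % activity for curve fitting.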
# Potency is the fitted concentration of half-maximal effect; tags give direction and shape of the fitted curve.
Structure (SMILES),Potency,"activity, negative = toxicity"
Cc1ccc2nc(-c3ccccc3N)[nH]c2c1,"inconclusive [cytotoxic, partial curve]",
Cc1ccc(C)c(S(=O)(=O)N2CCN(c3ncccn3)CC2)c1,"inconclusive [cytotoxic, single point]",
CCC(C)NC(=O)CN1C(=O)c2cccc3cccc1c23 (stereo not drawn),,inactive: 2.15%
CC1=C(C(=O)Nc2cccc(F)c2)C(c2ccsc2)C2=C(CC(C)(C)CC2=O)N1 (stereo not drawn),active: 2.06 µM,
CCCC[n+]1ccn(-c2nc3ccccc3nc2[N-]S(=O)(=O)c2cccs2)c1,,inactive: 0.0019%
CSc1ccc(NC(=O)N2CC=C(n3c(=O)[nH]c4ccccc43)CC2)cc1,"inconclusive [cytotoxic, single point]",
Oc1ccc2ccccc2c1/C=N/Nc1nnc(-c2ncc[nH]2)c2ccccc12,active: 5.17 µM,
O=C(CSc1nc2ccccc2c(=O)[nH]1)Nc1ccc(S(=O)(=O)N2CCCC2)cc1,"inconclusive [cytotoxic, single point]",
S=C(Nc1ccc(Nc2ccccc2)cc1)N1CCN(c2ncccn2)CC1,,inactive: 5.11%
COc1ccc(S(=O)(=O)N2CCOC23CCN(S(=O)(=O)c2c(C)cc(C)cc2C)CC3)cc1,,inactive: -4.93%
C/C=C(/C)C(=O)O[C@@H]1Cc2c(ccc3ccc(=O)oc23)OC1(C)C,,inactive: 11.1%
Cc1cccc(NS(=O)(=O)c2cn(C)c(=O)n(C)c2=O)c1C,,inactive: 15.7%
C=CCn1ccc(=NC=C(C#N)C#N)c2ccccc21,,inconclusive: -37.4% [cytotoxic]
CCn1cc([N+](=O)[O-])c(C(=O)Nc2nc(-c3ccc(C)cc3)c(C)s2)n1,"inconclusive [cytotoxic, single point]",
COc1ccccc1CNC(=O)C1CCC(CNC(=O)[C@@H]2Cc3ccccc3CN2)CC1 (stereo partly drawn),,inactive: -4.2%
CCOC(=O)c1ccccc1NS(=O)(=O)c1ccc(C)cc1,"inconclusive [cytotoxic, single point]",
N=c1ccn2c(n1)O[C@H]1[C@H](O)[C@@H](CO)O[C@H]12,,inconclusive: -11.1% [cytotoxic]
CCCCNC(=O)c1onc(CSc2ccc(C(C)C)cc2)c1C(=O)O,"inconclusive [cytotoxic, single point]",
COc1ccc2cc(C(C)C(=O)N3CCC(C)CC3)ccc2c1 (stereo not drawn),"inconclusive [cytotoxic, single point]",
COc1ccc(N2CCN(c3cc(C)c4ccc(C)cc4n3)CC2)cc1,,inactive: -6.23%
COCCn1nnnc1C(c1cc2ccc(C)cc2[nH]c1=O)N(Cc1ccco1)Cc1cccs1 (stereo not drawn),"inconclusive [cytotoxic, single point]",
Nc1ccc2nc(-c3cc(Cl)c(N)c(Cl)c3)[nH]c2c1,"inconclusive [cytotoxic, single point]",
COc1ccc2nc(NC(=O)C3CC(=O)N(c4ccc5c(c4)OCCO5)C3)sc2c1 (stereo not drawn),,inactive: -18.4%

Structure (SMILES),Potency,"activity, negative = toxicity"
Cc1[nH]c2ccccc2c1C(=O)CCl,"inconclusive [cytotoxic, single point]",
COc1cc(C2C(C#N)=C(N)Oc3cc(N(C)C)ccc32)cc2c1OCO2 (stereo not drawn),"inconclusive [cytotoxic, full curve]",
CN1C(=O)Cc2cc(S(=O)(=O)N3CCN(c4cccc(C(F)(F)F)c4)CC3)ccc21,,inactive: -1.56%
Cc1cccc(N=C2NC(=O)/C(=C/c3cccn3C)S2)c1C,"inconclusive [cytotoxic, partial curve]",
Cc1cc(C)cc(NC(=S)/C(=C(\[O-])c2ccc(Cl)cc2Cl)[n+]2ccccc2)c1,,inactive: -0.147%
CCC[N+]1(CC#CCC(c2ccccc2)c2ccccc2)CCCCC1,"inconclusive [cytotoxic, partial curve, poor fit]",
CCOc1cc(CNCc2ccccn2)ccc1OCC(=O)NC(C)(C)C,"inconclusive [cytotoxic, full curve]",
COc1cc(OC)nc(Nc2nc(C(N)Cc3ccc(C(F)(F)F)cc3)cs2)n1 (stereo not drawn),"inconclusive [cytotoxic, single point]",
Cc1ccc(N(CC(O)CON=C2c3ccccc3-c3ccccc32)S(C)(=O)=O)cc1 (stereo not drawn),"inconclusive [cytotoxic, single point]",
Cc1cc(C(C)(C)CC(C)(C)C)ccc1OCCOCC[N+](C)(C)Cc1ccccc1,"inconclusive [cytotoxic, single point]",
CC(C)(C)NC(=O)C(c1ccco1)N(C(=O)Cn1nnc(-c2ccc(F)cc2)n1)c1ccccc1F (stereo not drawn),"inconclusive [cytotoxic, single point]",
COc1ccc(C2CCCN2CC(O)COc2ccccc2C(C)C)cc1 (stereo not drawn),active: 20.6 µM,
O=C(COc1ccc(Cl)cc1Cl)NNC(=S)NC(=O)c1ccco1,"inconclusive [cytotoxic, single point]",
O=C(COC(=O)c1ccc(OC(F)F)cc1)Nc1cccc(S(=O)(=O)NC2=NCCC2)c1,"inconclusive [cytotoxic, single point]",
CCCCc1ccc(Nc2nc(CCC)cc(=O)[nH]2)cc1,"inconclusive [cytotoxic, single point]",
Cc1cc(NC(=O)c2c(F)c(F)c(F)c(F)c2F)no1,"inconclusive [cytotoxic, single point]",
CC1CCCC(C)N1C(=O)CSc1nnc(COc2ccc(F)cc2)o1 (stereo not drawn),,inactive: -0.976%
O=C(c1cccs1)N1N=C(c2ccccc2)CC1c1ccc(O)cc1 (stereo not drawn),,inactive: -6.69%
CCN1CCN(Cc2ccc(NC(=O)c3ccc(C)c(NC(=O)C4=NN(c5ccccc5)C(=O)C4)c3)cc2C(F)(F)F)CC1,inactive,
Nc1nonc1-n1nnc(C(=O)N/N=C/c2ccc(OCc3ccc(F)cc3)cc2)c1COc1ccccc1,"inconclusive [cytotoxic, partial curve]",
CN(CCO)c1cccc2c1S(=O)(=O)N[C@@H](Cc1ccccc1)CO2,,inactive: 2.19%
O=C(NC(c1ccc(F)cc1)c1ccc2ccccc2n1)C1CCN(Cc2ccc(Oc3ccccc3)cc2)CC1 (stereo not drawn),"inconclusive [cytotoxic, single point]",
Cc1sc(N=Nc2ccc(N(C)C)cc2)[n+]([O-])c1C,"inconclusive [cytotoxic, single point]",

Structure (SMILES),Potency,"activity, negative = toxicity"
COC(=O)c1c(C)oc2ccc(NS(=O)(=O)c3cc(OC)ccc3OC)cc12,"inconclusive [cytotoxic, single point]",
CCCCN(CC)CCCNC(=O)c1cc2c(=O)[nH]c3ccccc3c2s1,"inconclusive [cytotoxic, single point]",
Cc1ccccc1-c1cc2nc(NCCN3CCCC3)n(C)c(=O)c2s1,"inconclusive [cytotoxic, partial curve]",
Cc1ccc2nc(-c3ccccc3)c(Cc3ccccc3C(F)(F)F)n2c1,"inconclusive [cytotoxic, single point]",
CCN(CC)c1ccc(NC(=O)c2ccc(Br)o2)c(C)c1,"inconclusive [cytotoxic, single point]",
O=C(CCC(=O)N1CCN(c2cccc(Cl)c2)CC1)c1cccs1,"inconclusive [cytotoxic, partial curve, poor fit]",
COc1ccc(NC2=NCC(Cc3ccc(Br)cc3)S2)cc1 (stereo not drawn),active: 20.6 µM,
CC1=C(C(=O)OCC(C)C)C(c2cc3c(cc2Br)OCO3)NC(=O)N1C (stereo not drawn),"inconclusive [cytotoxic, single point]",
CCOC(=O)[C@]12CCCC=C1N(CCC1=CCCCC1)C(=O)[C@H](CC(=O)N1CCC(c3ccccc3)CC1)C2,"inconclusive [cytotoxic, single point]",
CC(=O)O[C@H]1[C@@H](O)[C@H](O)[C@H](Oc2c(O)c(C)c3c4c2[C@@H](C)CC[C@@H]4[C@@H](C)C[C@H]3C=C(C)C)O[C@H]1C,"inconclusive [cytotoxic, single point]",
COC(=O)c1cccc(Nc2cc(C)nc(-c3ccccc3O)n2)c1,"inconclusive [cytotoxic, single point]",
COc1ccc(NC(=O)c2noc(C(C)C)c2[N+](=O)[O-])cc1,"inconclusive [cytotoxic, single point]",
CN(C)CCCN1c2ccccc2CCc2ccc(Cl)cc21,active: 20.6 µM,
O=C(c1ccccc1)c1ccc2nc(-c3ccc(NC(=O)c4ccccc4F)cc3)[nH]c2c1,"inconclusive [cytotoxic, single point]",
CC(=O)N=c1scc(-c2ccccc2)n1-c1cccc(O)c1,"inconclusive [cytotoxic, single point]",
COc1ccc2nc(NN=C(C)c3ccccn3)cc(C)c2c1,active: 11.6 µM,
O=C(O)CSc1cc(NS(=O)(=O)c2ccc(Br)cc2)c2ccccc2c1O,active: 16.4 µM,
CCCCCCSc1nsc(NC(=O)CC(C)C)n1,active: 14.6 µM,
CCc1ccc(C(=O)Cn2ncc(Cl)c(Cl)c2=O)cc1,"inconclusive [cytotoxic, single point]",
COc1ccc2nc(NC(=O)c3cccc(-c4cc5ccccc5oc4=O)c3)sc2c1,active: 18.4 µM,
O=C1C=CC(O)C2(CO)OC12 (stereo not drawn),"inconclusive [cytotoxic, single point]",
Cc1ccc(C(=O)C=Cc2ccc3c(c2)OCO3)c(C)c1,"inconclusive [cytotoxic, single point]",
